Measured values reported in a collection of fitness landscapes (doi:10.1038/s41467-024-54723-y).
Over roughly 18,000 sequences, “TetR repression strength (sort-seq, GFP reporter)” has its median near 0.23; the highest 2% begin near 0.68. This is one part of the list.

Molecular target: TetR (class B, Tn10) (UniProt P04483)
Assay: TetR repression strength (sort-seq, GFP reporter) (relative to tetO2 = 1); higher = stronger repression
Conditions: E. coli
Procedure, shortened: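 E. coli SIG10-MAX carried a low-copy plasmid library with eight randomized operator positions between a constitutive promoter and sfGFP, with TetR constitutively expressed. Cells grew 5 h at 37 °C in LB with 50 µg/mL chloramphenicol, then 10^6 cells were FACS-sorted into 13 fluorescence bins, each Illumina-sequenced. Repression strength is the top bin index plus one minus the read-weighted mean bin, divided by the wild-type operator value. Three independent transformations; variants with ≥30 reads in all replicates and CV ≤0.5 were averaged.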

Chain of UniProt P04483 (P04483 whole entry): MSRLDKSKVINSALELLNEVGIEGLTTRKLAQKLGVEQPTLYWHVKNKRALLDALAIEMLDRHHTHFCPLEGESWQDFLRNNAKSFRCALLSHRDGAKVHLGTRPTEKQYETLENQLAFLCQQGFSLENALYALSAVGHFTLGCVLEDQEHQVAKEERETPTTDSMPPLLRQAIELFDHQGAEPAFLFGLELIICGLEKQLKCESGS

Sequence	TetR repression strength
TCCCTTTAAGTCCTGGAGA	0.349
TCCCTGCTAGTGGCGGAGA	0.29
TCCCACCGAGTTAGCGAGA	0.15
TCCCTCGTAGTGTGCGAGA	0.28
TCCCGACGAGTGTTTGAGA	0.321
TCCCTCCCAGTGTTTGAGA	0.3
TCCCACGGAGTGCGCGAGA	0.155
TCCCGGAGAGTATCCGAGA	0.313
TCCCGAAAAGTCATTGAGA	0.297
TCCCTTCGAGTTACGGAGA	0.247
TCCCAGATAGTCGAAGAGA	0.115
TCCCAGCAAGTTAGGGAGA	0.383
TCCCATCCAGTGGGGGAGA	0.175
TCCCATTCAGTGGTAGAGA	0.449
TCCCGGCGAGTGTTTGAGA	0.283
TCCCGCATAGTCAATGAGA	0.256
TCCCTGGTAGTTGCTGAGA	0.189
TCCCTTAGAGTTCTCGAGA	0.418
TCCCACAAAGTCAGTGAGA	0.0709
TCCCGGACAGTGTTCGAGA	0.142
TCCCCGTCAGTATGAGAGA	0
TCCCGTCCAGTATGTGAGA	0.196
TCCCTCTGAGTGAAAGAGA	0.236
TCCCAGGTAGTATAGGAGA	0.265
TCCCGGAGAGTCAATGAGA	0.18
TCCCCGGAAGTCTAGGAGA	0.113

Sequence	TetR repression strength
TCCCACTGAGTGCAAGAGA	0.326
TCCCCGCAAGTATATGAGA	0.408
TCCCTTGCAGTCTGGGAGA	0.219
TCCCACATAGTAGATGAGA	0.272
TCCCAATCAGTCGGCGAGA	0.29
TCCCCCTTAGTCTGCGAGA	0.202
TCCCTCTGAGTCCGAGAGA	0.22
TCCCAGATAGTAATGGAGA	0.187
TCCCCATGAGTAGTGGAGA	0.139
TCCCGTTGAGTGGTCGAGA	0.1
TCCCGTTGAGTTGCGGAGA	0.126
TCCCAGCGAGTGGGAGAGA	0.386
TCCCGCCGAGTGATAGAGA	0.477
TCCCAGTGAGTTCGGGAGA	0.166
TCCCACGGAGTTAGAGAGA	0.412
TCCCTATGAGTGCGGGAGA	0.24
TCCCGCTAAGTCGTTGAGA	0.206
TCCCCAGAAGTGGTAGAGA	0.255
TCCCGGGCAGTTAGAGAGA	0.155
TCCCGAGGAGTCTAGGAGA	0.186
TCCCCCGTAGTGGGAGAGA	0.312
TCCCTCTGAGTGTTTGAGA	0.384
TCCCATGGAGTCATGGAGA	0.205
TCCCGTGCAGTGTGGGAGA	0.295
TCCCAATAAGTTTGTGAGA	0.0461
TCCCACGTAGTTAGCGAGA	0.0518

Sequence	TetR repression strength
TCCCAGTGAGTTGGAGAGA	0.303
TCCCGAATAGTAAAGGAGA	0.347
TCCCTTTAAGTTAACGAGA	0.404
TCCCGCCGAGTGACAGAGA	0.484
TCCCCCTGAGTCATTGAGA	0.526
TCCCAAATAGTGGTTGAGA	0.0746
TCCCGGTGAGTCAAGGAGA	0.206
TCCCCGGGAGTCCGAGAGA	0.353
TCCCAAGGAGTAAGTGAGA	0.149
TCCCAATCAGTGTGGGAGA	0.153
TCCCGGCTAGTGGCGGAGA	0.147
TCCCGTCCAGTAATGGAGA	0.52
TCCCCCACAGTCGATGAGA	0.246
TCCCGTAAAGTGTGAGAGA	0.0929
TCCCAATCAGTAACGGAGA	0.802
TCCCATGGAGTCGGTGAGA	0.0966
TCCCATAGAGTCAAGGAGA	0.365
TCCCGTGTAGTGGCAGAGA	0.171
TCCCAATGAGTCTTCGAGA	0.163
TCCCATGAAGTACGGGAGA	0.317
TCCCACTTAGTTGCCGAGA	0.539
TCCCCCTCAGTTAGCGAGA	0.22
TCCCAGCGAGTGAGCGAGA	0.153
TCCCGGTAAGTCGTAGAGA	0.269
TCCCGCACAGTTCACGAGA	0.18
TCCCAAGTAGTGCAAGAGA	0.349

Sequence	TetR repression strength
TCCCGCAGAGTCAACGAGA	0.163
TCCCTTGGAGTGCGGGAGA	0.246
TCCCGATTAGTGGCAGAGA	0.148
TCCCAGTTAGTCCTCGAGA	0.244
TCCCGGCGAGTAGAAGAGA	0.418
TCCCAGGGAGTCTGTGAGA	0.278
TCCCCAGGAGTGGGTGAGA	0.428
TCCCGGTAAGTTCCGGAGA	0.166
TCCCACGGAGTGGCGGAGA	0.0816
TCCCGCCAAGTAGTGGAGA	0.268
TCCCTGGAAGTGGCTGAGA	0.32
TCCCATCCAGTAGCCGAGA	0.364
TCCCGCAGAGTAGTCGAGA	0.188
TCCCACTGAGTGCCTGAGA	0.139
TCCCTGATAGTTGTGGAGA	0.354
TCCCTATTAGTAGCAGAGA	0.143
TCCCATCTAGTTGGGGAGA	0.219
TCCCTAGTAGTATTGGAGA	0.215
TCCCGATGAGTGGTTGAGA	0.14
TCCCAGTTAGTGGTCGAGA	0.202
TCCCGAAGAGTGGTAGAGA	0.353
TCCCTAAGAGTGAATGAGA	0.276
TCCCATCAAGTTATTGAGA	0.363
TCCCGGACAGTTGGAGAGA	0.299
